Measurements as given in US7618986B2, “Method of treating latent tuberculosis” (priority 2006, dated 2009).
“And” between values parts separate entries of the source, which are not always exact repeats. Equal entries are not always repeated. Structures can show the parent of a compound that is named as a salt. Where two headings read alike, the source gives them in different places.

Tested on: dormant H37Rv-CA-luxAB strain
Experiment: microbe, parasite or virus in culture
Conditions: Mycobacterium tuberculosis

SMILES	MBC (read-out: MBC, CFU)	MBC (read-out: MBC, Luciferase)
O=[N+]([O-])c1cn2c(n1)OC[C@@H](OCc1ccc(OC(F)(F)F)cc1)C2 [PA-824]	35.6 µM and 12.8 µg/mL	17.8 µM and 6.4 µg/mL
CO[C@H]1/C=C/O[C@@]2(C)Oc3c(C)c(O)c4c(O)c(c(/C=N/N5CCN(C)CC5)c(O)c4c3C2=O)NC(=O)/C(C)=C\C=C\[C@H](C)[C@H](O)[C@@H](C)[C@@H](O)[C@@H](C)[C@H](OC(C)=O)[C@@H]1C [Rifampin, rifampin]	4.86 µM and 4 µg/mL	4.86 µM and 4 µg/mL
O=[N+]([O-])c1nccn1CCCNc1ccnc2cc(Cl)ccc12 [NLCQ-1, 4-[3-(2-Nitro-1-imidazolyl)-propylamino]-7-chloroquinoline hydrochloride]	50 µM and 18.4 µg/mL	25 µM and 9.2 µg/mL
O=[N+]([O-])c1nccn1CCCCNc1ccnc2cc(Cl)ccc12 [NLCQ-2, 4-[4-(2-nitro-1-imidazolyl)-butylamino]-7-chloroquinoline hydrochloride]	25 µM and 9.8 µg/mL	12.5 µM and 4.9 µg/mL
